Reference: the supplement of paper PMC12217912
The list shows a part of the results. The full chains were built here from the parent and the listed change. Inactive controls read about 0.05.

B1: TEV protease; numbered along this chain (parent)
chain: MGESLFKGPRDYNPISSSICHLTNESDGHTTSLYGIGFGPFIITNKHLFRRNNGTLVVQSLHGVFKVKDTTTLQQHLVDGRDMIIIRMPKDFPPFPQKLKFREPQREERICLVTTNFQTKSMSSMVSDTSCTFPSGDGIFWKHWIQTKDGQCGSPLVSTRDGFIVGIHSASNFTNTNNYFTSVPKNFMELLTNQEAQQWVSGWRLNADSVLWGGHKVFMVKPEEPFQPVKEATQL

Variants of: B1
Experiment: raw area under fraction-flipped curve 0-4 h after induction (AUC4h, not background-subtracted), DNA-recorder readout of cleavage of the substrate (dimensionless); higher = more cleavage of the substrate by the protease variant
Conditions: temperature: 34 °C; time window: 0-4 h after rhamnose induction
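Also: Bxb1 expression induced with 0.2% (w/v) L-rhamnose at OD600 near 0.5, cultures sampled hourly, flipped fraction per protease–substrate barcode pair counted by paired-end Illumina sequencing.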

Variant | area with substrate ENLYDQS | area with substrate ENLYEQS | area with substrate ENLYHQS | area with substrate ENLYIQS | area with substrate ENLYKQS | area with substrate ENLYMQS | area with substrate ENLYNQS | area with substrate ENLYQQS | area with substrate ENLYGQS | area with substrate ENLYPQS | area with substrate ENLYRQS | area with substrate ENLYVQS | area with substrate ENLYWQS | area with substrate ENLYYQS | area with substrate ENLYLQS | area with substrate ENLYSQS | area with substrate ENLYTQS
Y34N | 0.0387 | 0.0764 | 0.0726 | 0.0696 | 0.0639 | 0.0788 | 0.0431 | 0.0636 | – | – | – | – | – | – | – | – | –
I164S | 0.0463 | 0.0537 | 0.047 | 0.0634 | 0.0479 | 0.05 | 0.0553 | – | 0.0604 | 0.0482 | 0.0364 | 0.0515 | 0.0409 | 0.0502 | – | – | –
E108L | 0.0568 | – | 0.0498 | 0.0922 | 0.0522 | 0.0671 | 0.0274 | – | 0.0573 | 0.0628 | 0.0659 | – | – | – | – | – | –
K120R | 0.0665 | 0.058 | 0.0777 | 0.124 | 0.0593 | 0.103 | 0.0678 | 0.0524 | 0.0703 | 0.0686 | 0.0726 | 0.115 | 0.0887 | 0.0656 | 0.073 | 0.0687 | 0.081
L235I | 0.0526 | 0.0557 | 0.0824 | 0.0797 | 0.0377 | 0.0887 | – | – | – | 0.103 | – | 0.0918 | 0.0526 | – | 0.0723 | – | 0.0963
L235N | 0.0686 | 0.0748 | – | 0.117 | 0.0765 | – | 0.0658 | 0.0628 | 0.0578 | 0.0606 | 0.0673 | 0.102 | – | 0.0641 | – | – | 0.087
I42T | 0.0652 | – | – | 0.0607 | 0.0484 | 0.0491 | 0.0559 | 0.0512 | 0.058 | 0.0711 | 0.0491 | – | 0.0527 | 0.0405 | 0.0518 | 0.0238 | –
L61S | 0.0124 | – | – | – | 0.0864 | – | 0.0748 | – | – | 0.0753 | 0.0567 | – | – | – | – | – | –
F101Y | 0.0403 | 0.0628 | – | – | – | – | 0.0569 | – | 0.0575 | 0.0393 | – | – | – | – | – | – | –
Y179N | 0.0626 | – | 0.0297 | – | 0.0218 | – | – | – | – | 0.0339 | – | 0.0678 | – | – | 0.063 | – | 0.0587
V210F | 0.0552 | – | 0.0868 | 0.1 | 0.0643 | 0.0882 | – | 0.0454 | 0.0686 | – | 0.0684 | – | – | 0.055 | – | 0.0671 | –
K90Y | 0.0824 | – | 0.043 | – | 0.0627 | 0.0717 | 0.0758 | 0.0628 | – | – | – | – | – | – | – | 0.0714 | –
G54F | 0.108 | – | – | 0.0723 | 0.0221 | – | 0.0608 | – | – | 0.0875 | – | – | 0.0588 | 0.0664 | – | – | –
A196R | 0.0771 | – | 0.0684 | – | – | – | – | – | – | – | – | – | – | – | – | – | –
E195V | 0.0431 | – | 0.0663 | – | 0.0231 | – | – | – | – | – | – | – | 0.0661 | – | – | – | –
F173R | 0.0114 | – | 0.0525 | – | – | – | – | – | 0.067 | – | – | 0.113 | 0.117 | 0.0429 | 0.0622 | – | –
P184D | 0.0623 | 0.0645 | – | – | 0.0378 | 0.079 | 0.0505 | 0.0479 | 0.0605 | 0.0606 | 0.0534 | – | 0.0525 | – | 0.0873 | – | –
E189H | 0.034 | 0.0544 | 0.064 | 0.121 | – | 0.0744 | 0.0645 | 0.0625 | 0.0597 | 0.0635 | – | – | 0.0713 | – | 0.111 | 0.0852 | 0.114

Variant | area with substrate ENLYDQS | area with substrate ENLYEQS | area with substrate ENLYHQS | area with substrate ENLYIQS | area with substrate ENLYKQS | area with substrate ENLYMQS | area with substrate ENLYNQS | area with substrate ENLYQQS | area with substrate ENLYGQS | area with substrate ENLYPQS | area with substrate ENLYRQS | area with substrate ENLYVQS | area with substrate ENLYWQS | area with substrate ENLYYQS | area with substrate ENLYLQS | area with substrate ENLYSQS | area with substrate ENLYTQS
N193R | 0.0677 | – | 0.0208 | – | – | – | – | – | – | 0.0717 | – | – | – | – | – | – | –
T55H | 0.0591 | 0.0701 | 0.0586 | 0.134 | 0.0545 | – | – | 0.0503 | 0.0372 | – | 0.0646 | 0.14 | 0.0822 | 0.0497 | 0.0921 | 0.0798 | 0.0777
V58E | 0.0423 | – | – | – | 0.0084 | – | – | – | – | – | – | – | – | – | – | – | –
E3I | 0.0719 | 0.0544 | 0.0754 | – | 0.0961 | – | 0.0717 | – | – | 0.0649 | – | – | 0.0895 | – | 0.103 | 0.0976 | –
Q234D | 0.0599 | 0.0675 | 0.0724 | 0.137 | 0.0409 | – | 0.0792 | – | 0.0804 | 0.072 | 0.0525 | 0.0859 | 0.0825 | 0.0838 | 0.0721 | 0.0638 | –
F49S | 0.0581 | 0.0561 | 0.0561 | 0.0488 | 0.0568 | 0.0582 | 0.0542 | – | 0.0491 | 0.0592 | 0.0506 | 0.0728 | 0.0428 | 0.0505 | – | – | –
H62C | 0.051 | 0.0684 | 0.0657 | 0.122 | 0.0815 | 0.0904 | 0.0781 | – | – | 0.0608 | 0.0544 | 0.15 | 0.0738 | – | 0.0924 | – | 0.0881
F180Q | 0.0376 | – | – | – | 0.0261 | – | – | – | – | 0.0533 | – | 0.0608 | – | – | – | – | –
D161P | 0.0588 | – | – | – | – | – | – | – | – | – | 0.0544 | – | – | – | – | 0.0428 | –
K185W | 0.0751 | 0.0611 | 0.0844 | 0.113 | 0.0669 | 0.0835 | 0.0587 | 0.0604 | 0.0687 | 0.0654 | 0.0561 | 0.0929 | 0.085 | 0.0587 | 0.0982 | 0.0745 | 0.0764
P228C | 0.0349 | 0.0613 | 0.0753 | 0.105 | 0.0337 | 0.0865 | 0.0617 | 0.0755 | 0.066 | 0.0635 | 0.0562 | 0.12 | 0.0768 | 0.075 | 0.0878 | 0.0724 | –
P222R | 0.0457 | 0.051 | 0.0579 | 0.103 | – | 0.0693 | 0.0638 | 0.0796 | 0.0568 | – | – | 0.0956 | 0.0599 | 0.0706 | 0.0699 | 0.0602 | –
G136S | 0.0523 | 0.0719 | 0.0741 | 0.232 | – | – | 0.0564 | 0.0586 | – | – | – | 0.14 | – | – | – | – | 0.0647
T114C | 0.0632 | 0.0718 | 0.0682 | 0.118 | 0.0718 | – | 0.0699 | 0.0502 | – | – | – | 0.11 | 0.1 | 0.079 | – | 0.0729 | –
T114D | 0.0326 | 0.0599 | – | – | – | – | 0.0654 | 0.058 | – | – | – | – | – | 0.0511 | – | – | –
Q97K | 0.0763 | – | – | 0.114 | – | – | – | – | – | – | – | – | 0.0527 | – | – | – | 0.0906
Q97F | 0.0695 | – | – | 0.141 | 0.0686 | – | 0.0653 | – | 0.0539 | 0.0706 | – | – | 0.0627 | – | – | – | 0.0647
S169G | 0.0523 | 0.0633 | 0.0649 | 0.0546 | 0.0651 | 0.0595 | 0.0545 | 0.0625 | 0.0588 | 0.0556 | 0.0686 | 0.067 | 0.061 | 0.0648 | – | 0.0763 | –
